Our source for the binding signal values is article PMC9911399, “Two distinct binding modes provide the RNA-binding protein RbFox with extraordinary sequence specificity”.

Substitutions are numbered along the chain they refer to; changes in the protein carry UniProt numbers. Some of the results follow.

The chains are these.
T1: RBFOX1 RRM (Homo sapiens, UniProt Q9NWB1 109-208)
T1 sequence: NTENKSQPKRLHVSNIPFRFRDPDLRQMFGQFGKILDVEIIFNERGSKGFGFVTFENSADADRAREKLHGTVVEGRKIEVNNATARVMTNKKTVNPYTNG

B1: UAAUCUG (DNA:RNA)
RNA: GGGAGACCGGAAUUCAGAUUGUCCUAAUCUGUUAAAUCCCGUCGUAGCCACCA
DNA 1: CAATCTGAATTCCGGTCTCCC
DNA 2: TGGTGGCTACGACGGGATT
B2: CGAGAGU (DNA:RNA)
RNA: B1 RNA with U25C, A26G, U28G, C29A, U30G, G31U
DNA 1: CAATCTGAATTCCGGTCTCCC
DNA 2: TGGTGGCTACGACGGGATT
B3: UGAGCCC (DNA:RNA)
RNA: B1 RNA with A26G, U28G, U30C, G31C
DNA 1: CAATCTGAATTCCGGTCTCCC
DNA 2: TGGTGGCTACGACGGGATT
B4: GCAGCCU (DNA:RNA)
RNA: B1 RNA with U25G, A26C, U28G, U30C, G31U
DNA 1: CAATCTGAATTCCGGTCTCCC
DNA 2: TGGTGGCTACGACGGGATT
B5: CAGACCG (DNA:RNA)
RNA: B1 RNA with U25C, A27G, U28A, U30C
DNA 1: CAATCTGAATTCCGGTCTCCC
DNA 2: TGGTGGCTACGACGGGATT
B6: UGCAUGU (DNA:RNA)
RNA: B1 RNA with A26G, A27C, U28A, C29U, U30G, G31U
DNA 1: CAATCTGAATTCCGGTCTCCC
DNA 2: TGGTGGCTACGACGGGATT
B7: GGUUCCU (DNA:RNA)
RNA: B1 RNA with U25G, A26G, A27U, U30C, G31U
DNA 1: CAATCTGAATTCCGGTCTCCC
DNA 2: TGGTGGCTACGACGGGATT
B8: CGAAACG (DNA:RNA)
RNA: B1 RNA with U25C, A26G, U28A, C29A, U30C
DNA 1: CAATCTGAATTCCGGTCTCCC
DNA 2: TGGTGGCTACGACGGGATT
B9: UACACCU (DNA:RNA)
RNA: B1 RNA with A27C, U28A, U30C, G31U
DNA 1: CAATCTGAATTCCGGTCTCCC
DNA 2: TGGTGGCTACGACGGGATT
B10: AGCUGGU (DNA:RNA)
RNA: B1 RNA with U25A, A26G, A27C, C29G, U30G, G31U
DNA 1: CAATCTGAATTCCGGTCTCCC
DNA 2: TGGTGGCTACGACGGGATT
B11: CAAUGGA (DNA:RNA)
RNA: B1 RNA with U25C, C29G, U30G, G31A
DNA 1: CAATCTGAATTCCGGTCTCCC
DNA 2: TGGTGGCTACGACGGGATT
B12: CCGCCGG (DNA:RNA)
RNA: B1 RNA with U25C, A26C, A27G, U28C, U30G
DNA 1: CAATCTGAATTCCGGTCTCCC
DNA 2: TGGTGGCTACGACGGGATT
B13: AGUGCAC (DNA:RNA)
RNA: B1 RNA with U25A, A26G, A27U, U28G, U30A, G31C
DNA 1: CAATCTGAATTCCGGTCTCCC
DNA 2: TGGTGGCTACGACGGGATT
B14: CUCCAAA (DNA:RNA)
RNA: GGGAGACCGGAAUUCAGAUUGUCCCUCCAAAUUAAAUCCCGUCGUAGCCACCA
DNA 1: CAATCTGAATTCCGGTCTCCC
DNA 2: TGGTGGCTACGACGGGATT
B15: CAUGCGU (DNA:RNA)
RNA: B1 RNA with U25C, A27U, U28G, U30G, G31U
DNA 1: CAATCTGAATTCCGGTCTCCC
DNA 2: TGGTGGCTACGACGGGATT
B16: CGGCUAU (DNA:RNA)
RNA: B14 RNA with U26G, C27G, A29U, A31U
DNA 1: CAATCTGAATTCCGGTCTCCC
DNA 2: TGGTGGCTACGACGGGATT
B17: ACGUAGC (DNA:RNA)
RNA: B14 RNA with C25A, U26C, C27G, C28U, A30G, A31C
DNA 1: CAATCTGAATTCCGGTCTCCC
DNA 2: TGGTGGCTACGACGGGATT
B18: GCUUGUA (DNA:RNA)
RNA: B1 RNA with U25G, A26C, A27U, C29G, G31A
DNA 1: CAATCTGAATTCCGGTCTCCC
DNA 2: TGGTGGCTACGACGGGATT
B19: AAGAUCU (DNA:RNA)
RNA: B1 RNA with U25A, A27G, U28A, C29U, U30C, G31U
DNA 1: CAATCTGAATTCCGGTCTCCC
DNA 2: TGGTGGCTACGACGGGATT
B20: UUAUGCG (DNA:RNA)
RNA: B1 RNA with A26U, C29G, U30C
DNA 1: CAATCTGAATTCCGGTCTCCC
DNA 2: TGGTGGCTACGACGGGATT
B21: AUAAGGA (DNA:RNA)
RNA: B14 RNA with C25A, C27A, C28A, A29G, A30G
DNA 1: CAATCTGAATTCCGGTCTCCC
DNA 2: TGGTGGCTACGACGGGATT
B22: UUGGAAU (DNA:RNA)
RNA: B14 RNA with C25U, C27G, C28G, A31U
DNA 1: CAATCTGAATTCCGGTCTCCC
DNA 2: TGGTGGCTACGACGGGATT
B23: CAGCUCU (DNA:RNA)
RNA: B14 RNA with U26A, C27G, A29U, A30C, A31U
DNA 1: CAATCTGAATTCCGGTCTCCC
DNA 2: TGGTGGCTACGACGGGATT
B24: GACCGAU (DNA:RNA)
RNA: B14 RNA with C25G, U26A, A29G, A31U
DNA 1: CAATCTGAATTCCGGTCTCCC
DNA 2: TGGTGGCTACGACGGGATT
B25: GUUUGGC (DNA:RNA)
RNA: B14 RNA with C25G, C27U, C28U, A29G, A30G, A31C
DNA 1: CAATCTGAATTCCGGTCTCCC
DNA 2: TGGTGGCTACGACGGGATT
B26: UAGGGGG (DNA:RNA)
RNA: B1 RNA with A27G, U28G, C29G, U30G
DNA 1: CAATCTGAATTCCGGTCTCCC
DNA 2: TGGTGGCTACGACGGGATT
B27: UGUUGCA (DNA:RNA)
RNA: B1 RNA with A26G, A27U, C29G, U30C, G31A
DNA 1: CAATCTGAATTCCGGTCTCCC
DNA 2: TGGTGGCTACGACGGGATT
B28: GCAGACA (DNA:RNA)
RNA: B14 RNA with C25G, U26C, C27A, C28G, A30C
DNA 1: CAATCTGAATTCCGGTCTCCC
DNA 2: TGGTGGCTACGACGGGATT
B29: UCGAACA (DNA:RNA)
RNA: B14 RNA with C25U, U26C, C27G, C28A, A30C
DNA 1: CAATCTGAATTCCGGTCTCCC
DNA 2: TGGTGGCTACGACGGGATT
B30: UAGGUGU (DNA:RNA)
RNA: B1 RNA with A27G, U28G, C29U, U30G, G31U
DNA 1: CAATCTGAATTCCGGTCTCCC
DNA 2: TGGTGGCTACGACGGGATT
B31: UCGAUCG (DNA:RNA)
RNA: B1 RNA with A26C, A27G, U28A, C29U, U30C
DNA 1: CAATCTGAATTCCGGTCTCCC
DNA 2: TGGTGGCTACGACGGGATT

This assay deals with T1, RBFOX1 RRM. The assay is described as follows: EMSA; HiTS-Eq, 1 nM pool, 10 min; buffer printed only for the single-RNA assays: 10 mM Tris pH 7.5, 150 mM NaCl, 3.4 mM EDTA, 0.001% NP-40, 30 C. The settings on record: tags: His6 N-terminal (pET28a); label: 5' 32P. An outline of the steps: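 Relative association constants, normalised to the cognate motif, were derived by comparing read counts of each RNA species with those of the control reaction. The RNA sequenced was the free fraction, separated by 8% native PAGE after a 10 min equilibration in 50 µL of 1 nM 5′-radiolabelled RNA (7 randomized nucleotides) with increasing concentrations of purified wild-type or mutant RbFox RRM.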
For orientation: Mobility shift assays separate free from complexed probe on a gel.
On to B1, for which the binding signal was 0.0136 KA relative to UGCAUGU.

Take B2: the binding signal was 0.0127 KA relative to UGCAUGU.

For B3, the binding signal was 0.00852 KA relative to UGCAUGU.

As to B4, the binding signal was 0.00879 KA relative to UGCAUGU.

As for B5, the binding signal was 0.00701 KA relative to UGCAUGU.

With B6, the binding signal was 1 KA relative to UGCAUGU.

On to B7, for which the binding signal is 0.0145 KA relative to UGCAUGU.

B8: the binding signal is 0.00807 KA relative to UGCAUGU.

As for B9, the binding signal was 0.00235 KA relative to UGCAUGU.

With B10, the binding signal was 0.0157 KA relative to UGCAUGU.

For the molecule B11, the binding signal was 0.00499 KA relative to UGCAUGU.

For B12, the binding signal is 0.0135 KA relative to UGCAUGU.

Turning to B13, the binding signal was 0.0117 KA relative to UGCAUGU.

As to B14, the binding signal is 0.00145 KA relative to UGCAUGU.

B15: the binding signal was 0.0103 KA relative to UGCAUGU.

As for B16, the binding signal is 0.0107 KA relative to UGCAUGU.

As to B17, the binding signal is 0.00592 KA relative to UGCAUGU.

For B18, the binding signal is 0.019 KA relative to UGCAUGU.

Regarding B19, the binding signal is 0.00387 KA relative to UGCAUGU.

Take B20: the binding signal was 0.019 KA relative to UGCAUGU.

Regarding B21, the binding signal was 0.000692 KA relative to UGCAUGU.

As to B22, the binding signal is 0.0191 KA relative to UGCAUGU.

For B23, the binding signal is 0.006 KA relative to UGCAUGU.

In the case of B24, the binding signal was 0.016 KA relative to UGCAUGU.

As to B25, the binding signal is 0.0149 KA relative to UGCAUGU.

With B26, the binding signal was 0.00978 KA relative to UGCAUGU.

In the case of B27, the binding signal was 0.0315 KA relative to UGCAUGU.

Take B28: the binding signal was 0.00524 KA relative to UGCAUGU.

In the case of B29, the binding signal was 0.00827 KA relative to UGCAUGU.

Turning to B30, the binding signal was 0.0263 KA relative to UGCAUGU.

In the case of B31, the binding signal is 0.0209 KA relative to UGCAUGU.
